Read counts are not given, so values of variants with three or more changes are uncertain.
B1: LINE1-mini (parent)
chain: GGCAGAGCUCAACACAGCGUGGCAAAGUGGCUGUGGCUAGACUGCC

Variants of: B1
Test: self-cleavage, relative activity (ratio to wild type); higher = more cleavage; in vitro, sequencing; the parent is a self-cleaving ribozyme

Variant	self-cleavage
C15U C37G G44U C45A	0.06
C15U A39U C45U	0.36
C15U G27U C42U C46A	0.04
C15U G17U G44U	0.05
C15U G19U U32C G33A	0.18
A16G C18A G36A	0.17
C15U G19C G36A C37A C46U	0.1
A16C G29A G30C	0.05
A16C A25C C31U	0.02
C15U G17U G19C G30U G35U	0.03
C15U A24C G29C	0.71
A16C G22C C31G G35A	0.02
A16C G21A G22A	0.06
C15U C37U G44A	0.12
A16C A41G C42A	0.12
A16C A24C G33U G40A	0.05
C15U G35A G40U	0.05
C15U G22U C23U	1.35
A16G A26U U28C C31U G36U G44C	0
A16G A41G C46G	0.08
C15U G29A C31U C42G	0.01
A16C G36U C37U	0.03
A16G A25G U38A	0.53
C15U G22A U28C G44U	0.04

Variant	self-cleavage
A16C C23A C42G	0.04
C15U A24C C42U	0.08
A16C A26U G35A	0.01
A16C A26U G35C	0.04
A16C G19A C45G	0.04
C15U A16C C45A	0.07
A16C U20C G27C G36U	0.01
C15U A25C G30U G33A	0.06
C15U G21C C23A A25C	2.65
C15U A25U C31G	0.03
A16C G21U A26C G35A	0.08
C15U C18G G35C	0.05
A16C A25G C37U G44C C46U	0.04
C15U A26U G36U	0.09
A16C A26U G29U G35C A41C	0.04
C15U G19C G33U C46A	0.01
C15U G29U C37U G44C C46A	0.02
C15U G19U A25G G35C C42A	0.01
A16C A25C G27C U28A	0.07
A16C G35U G36A	0.04
C15U A16G A24G C46G	0
A16C U28G G40U	0.03
C15U G22U U32A	0.01
C15U A26U C46U	1.14

Variant	self-cleavage
C15U G19C G21A C23A A25U	0.21
C15U G19U U20C C42A	0.08
C15U U20G C23A	0.69
A16G A24G U32A	0.02
C15U C23U G29C A41C	0.02
C15U C31A G35C	0.06
C15U G19C U32A	0.05
C15U A41C C46G	0
C15U U20C U43A G44U	0
C15U A25U G44U C46U	0.03
C15U G19A A24C G29A	0.13
A16G A41G G44U	0.07
C15G U38C C42U	0.04
C15U G17U U34A C42U	0.19
C15U A26U G27A C37A	0.08
C15U A24G G27U G29A	0.66
A16C G22U G29C G35U A41U	0.01
C15U U20G C31A C37A	0.04
A16C A25U G44C	0.04
A16C G21A G22U C31G G35A	0.03
C15U G22A A26G G29A C42A	0.27
C15U G29C C37U C42A	0.02
A16C U32C C46A	0.06
C15U U34G G35C	0.1

Variant	self-cleavage
C15U U34G G35U	0.06
A16G C18A C31U G33U A41G	0.08
C15U G17C A24C G30U G33A C45A C46A	0.01
C15U G19U U20G	0.28
C15U G29A C42A	0.02
C15U C18A U20G	0.03
C15U G22A G30A A41G U43A	0.04
C15G U32A G33C	0.15
C15U C18A C42A	0.05
C15U C18U G35A	0.06
C15U U32C C37A	0.04
A16G C18G G40C	0.17
C15U C18A C37G	0.04
A16G C18G C37U U38G	0
C15U G27C U32G C42G U43A	0.01
C15U C23U U38A A39G	0.03
C15U C18U A25U	0.11
C15U A26U C37A C42G C46G	0.04
A16C G29U C37U	1.46
C15U G40C C42U G44A C46G	0.02
A16C G19C G36U C45U	0.03
A16C C23U U43C	0.02
C15U G33A C45A	0.31
A16G A26C U28A	0.06

Variant	self-cleavage
C15U A16G G35A C37U C42U U43A	0.14
C15U U34A G35C U43A	0.07
C15U C23A C46A	2.44
C15U G17A G19U	0.03
A16C G33U U34C	0.29
A16C A24C U34A G35A U38A	0
C15U C23U G29C G36U	0.04
A16C A25G U28A G29C C31A A41U	0.03
C15U G17A C18A C37G U38C G44A	0.04
C15U G33A G35A	0.07
A16C U28C G44C	0.04
C15U G30A C37G	0.01
A16G A26C G27C	0.34
A16C U20C C23U G40U	0.01
C15U G21U A24C C31G	0.06
C15G U34G C37U G44A	0.01
C15U A24U G29C C31G A41G	0.17
C15U G17A U28A C45G	0.04
A16C G30A A41G	0.04
A16C G17C G21A C31U	0.09
A16C A25C U32A C42A	0
C15U G17A G19C G30A C37G	0.03
C15U U20C C23U C45G	0.04
A16C U20A C23A G35A	0.07

Variant	self-cleavage
C15U C23A G29U G40C	0.15
A16C G29A U34C G36A G40A C42G	0.05
C15U G29U A41G	0.34
C15U C18U U34C G36C	0.02
A16C A26U U34A G36U C46A	0.03
A16C C18U A41U	0.03
A16C A26C G40A	0.01
A16C C18U C37G G40C U43A	0.14
C15U U20A A25G C37G C42A	1.31
C15U G27C G29A	0.26
C15U U20C C23G G44U	0.24
C15G U34G C45A	0.02
A16C G35U U38C	0.18
C15U A25G U34A	0.08
C15U G21C G33U	1.23
A16C G19C C37A C45A	0.14
A16C A24U U38G C45A	0.05
C15U U20C A39G C42G U43G	0.02
A16C G29U G33A	0.01
C15U A16U G27A	0.18
C15U C18U G27A	0.1
A16G A25U G30U U34C	0.01
A16G C18G G40C C42U	0.14
C15U A16U C31A C42A	0.04

Variant	self-cleavage
A16G C18A A25C	0.03
C15U G17A G35C	0.02
A16C U34A C42G C45U	0.06
A16G C18A G22U	0.43
A16C G35A C42A	0.06
A16C G22A U34C G35U C42U	0.02
C15U C37G U38C	0.02
A16C G29U C46A	0.3
C15U G30C U43C	0
C15U G22A A26G	0.79
C15U G29C G40A	0.34
C15U G17U G30A U34A G35C	0.01
A16C G29U A39G	0.08
C15U C18U U20C G29A	0.07
A16C G21A U32G C37U	0.02
C15U G19A C31G U32A	0.02
A16C G21U U32A U38G	0
A16C G19C A25U	1.06
C15U G29U G44A	0.3
A16C G19A C31A A39C C42G	0
A16C G19U G33C	0.02
A16C G17U G36C U38C	0.02
C15U C18U G27U U32A A41U	0.04

Reference: the RNAGym collection of RNA variant scans (doi:10.7554/elife.90254)
